Measurements published in a compilation of properties of binary mixtures (doi:10.1016/j.molliq.2020.112718).
Some of these densities may be calculated back from excess volumes.

Assay: xn = mol fraction of the nth substance listed
Settings: 100 kPa

COCC[n+]1ccn(C)c1.C[C@@H](O)[C@H](N)C(=O)[O-] + O
mass density [kg/m3]
Settings	288.15 K	293.15 K	298.15 K	303.15 K	308.15 K	313.15 K	318.15 K	323.15 K	328.15 K
x1 = 0.3313	1196.3	1192.7	1189.2	1185.6	–	1178.5	1175	1171.4	1167.7
x1 = 0.3795	–	1192.9	1189.3	1185.7	1182.2	1178.7	1175.2	1171.6	1167.9
x1 = 0.4475	1196.6	1193	1189.5	1185.9	1182.3	1178.8	1175.3	–	1168.1
x1 = 0.5347	–	1193.2	1189.6	–	1182.5	1179	–	–	1168.3
x1 = 0.657	–	1193.4	1189.8	–	1182.7	1179.2	1175.7	–	1168.5
x1 = 1	–	1193.6	1190.1	1186.6	1183	1179.4	1176	1172.4	1168.8

CCOCC[n+]1ccn(C)c1.C[C@@H](O)[C@H](N)C(=O)[O-] + O
mass density [kg/m3]
Settings	288.15 K	293.15 K	298.15 K	303.15 K	308.15 K	313.15 K	318.15 K	323.15 K	328.15 K
x1 = 0.3157	1160.8	1157.2	1153.6	1150	1146.4	1142.8	1139.1	–	1131.8
x1 = 0.3647	1160.9	1157.3	1153.7	1150.1	1146.5	–	1139.3	–	–
x1 = 0.4246	1161.1	1157.4	1153.9	1150.3	1146.7	1143	1139.4	1135.8	1132
x1 = 0.508	–	–	1154	1150.4	1146.8	1143.2	1139.5	1135.9	–
x1 = 0.6189	1161.3	1157.7	–	1150.6	1146.9	1143.3	1139.7	1136	1132.3
x1 = 1	1161.6	1158	1154.4	1150.8	1147.2	1143.5	1139.9	1136.3	–
